We go through 44 compounds from publication PMC4336329 (PLoS ONE, 2015).

Hit rate of the full screen: of about 310,000 compounds, about 14,000 (4.5%) showed an effect of 50% or more. Effects have a minus sign here. Some of the results follow.
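Note: peak tail current of the secondary pulse compared with the same well before compound.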

In the test the target is human ether-à-go-go-related gene (hERG) potassium channel (human, UniProt Q12809). The test can be described thus: primary screen, population patch clamp on CHO cells stably expressing hERG.
human ether-à-go-go-related gene (hERG) potassium channel, sequence (Q12809 whole entry, looked up): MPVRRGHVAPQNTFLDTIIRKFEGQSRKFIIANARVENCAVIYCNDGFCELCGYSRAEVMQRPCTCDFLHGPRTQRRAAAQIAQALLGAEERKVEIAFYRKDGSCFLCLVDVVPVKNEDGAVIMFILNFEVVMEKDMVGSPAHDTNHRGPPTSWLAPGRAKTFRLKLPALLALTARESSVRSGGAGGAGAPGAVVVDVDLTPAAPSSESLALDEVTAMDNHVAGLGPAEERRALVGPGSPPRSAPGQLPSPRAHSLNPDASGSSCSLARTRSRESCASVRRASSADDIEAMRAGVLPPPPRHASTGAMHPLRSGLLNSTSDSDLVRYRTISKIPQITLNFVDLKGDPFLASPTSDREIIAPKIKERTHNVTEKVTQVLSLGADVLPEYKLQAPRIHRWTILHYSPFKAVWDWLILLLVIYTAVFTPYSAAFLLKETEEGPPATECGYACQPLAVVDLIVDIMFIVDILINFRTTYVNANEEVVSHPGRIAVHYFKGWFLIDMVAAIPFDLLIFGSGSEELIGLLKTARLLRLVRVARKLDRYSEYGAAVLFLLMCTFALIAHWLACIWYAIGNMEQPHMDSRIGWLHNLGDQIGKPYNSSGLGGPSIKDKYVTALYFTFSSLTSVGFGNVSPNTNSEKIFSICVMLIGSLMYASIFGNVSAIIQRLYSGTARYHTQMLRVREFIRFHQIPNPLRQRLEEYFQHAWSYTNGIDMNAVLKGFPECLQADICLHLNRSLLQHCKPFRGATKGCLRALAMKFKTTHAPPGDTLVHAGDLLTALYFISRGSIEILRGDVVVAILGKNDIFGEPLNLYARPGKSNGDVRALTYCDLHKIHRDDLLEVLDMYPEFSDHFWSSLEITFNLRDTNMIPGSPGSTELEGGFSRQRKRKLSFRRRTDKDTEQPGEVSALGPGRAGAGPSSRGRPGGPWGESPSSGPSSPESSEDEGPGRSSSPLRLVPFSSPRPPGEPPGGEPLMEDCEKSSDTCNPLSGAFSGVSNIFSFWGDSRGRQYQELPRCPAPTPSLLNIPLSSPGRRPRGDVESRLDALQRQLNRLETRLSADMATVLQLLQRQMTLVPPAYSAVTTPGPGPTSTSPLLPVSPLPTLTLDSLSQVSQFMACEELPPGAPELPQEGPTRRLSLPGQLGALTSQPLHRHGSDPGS
With `COCCn1c(SCC(=O)NC(=O)NC(C)C)nc2ccccc21`, the “hERG current change (%, negative = inhibition) at 10uM” value turned out to be 7.4%.

For `COc1ccc2cc(C3(C)NC(=O)N(CC(=O)NCc4ccco4)C3=O)ccc2c1` (centres unmarked), the “hERG current change (%, negative = inhibition) at 10uM” value is -15.3%.

For the compound `O=C(Nc1ccncc1)c1ccc2c(c1)S(=O)(=O)c1ccccc1C2=O`, the “hERG current change (%, negative = inhibition) at 10uM” value was -1.57%.

Consider `CNC(=O)C(=O)Nc1c(O)c2ccccc2[nH]c1=O`, for which the “hERG current change (%, negative = inhibition) at 10uM” value is listed as 3.83%.

Turning to `COc1ccc(NS(=O)(=O)c2cccc(C(=O)O)c2)cc1`, the “hERG current change (%, negative = inhibition) at 10uM” value is reported as 4.11%.

As for `O=C(CNC(=O)c1ccccc1)NCC(O)c1ccc([N+](=O)[O-])cc1` (centres unmarked), the “hERG current change (%, negative = inhibition) at 10uM” value is 10.7%.

`CCOC(=O)c1cc(C#N)c(N2CCN(c3ccc(OC)cc3)CC2)[nH]c1=O`: the “hERG current change (%, negative = inhibition) at 10uM” value was -8.77%.

In the case of `COc1cc(OC)c(OC)cc1CNCCc1ccc(OC)c(OC)c1`, the “hERG current change (%, negative = inhibition) at 10uM” value is -6.55%.

Regarding `COc1ccccc1C(=O)NCC(=O)OC(C)C(=O)N(C)C1CCCCC1` (centres unmarked), the “hERG current change (%, negative = inhibition) at 10uM” value was 0.317%.

In the case of `O=C1OC(c2ccc(F)cc2)=C/C1=C\c1ccc([N+](=O)[O-])o1`, the “hERG current change (%, negative = inhibition) at 10uM” value was 20.1%.

Regarding `CCOc1ccc(NC(=O)CN(C)C(=O)c2ccc(N3CCOCC3)c([N+](=O)[O-])c2)cc1OCC`, the “hERG current change (%, negative = inhibition) at 10uM” value is given as -19.1%.

In the case of `CCC(=NCc1ccccc1)C1=C(O)C(C(=O)OC)C(C)(C)CC1=O` (centres unmarked), the “hERG current change (%, negative = inhibition) at 10uM” value is listed as -17%.

For the compound `COc1ccccc1C(=O)NCC(=O)N1CCN(c2ncccn2)CC1`, the “hERG current change (%, negative = inhibition) at 10uM” value is 6.46%.

`COc1ccccc1NC(=O)C1(c2ccccc2)CCCC1`: the “hERG current change (%, negative = inhibition) at 10uM” value worked out at 3.06%.

As for `C/C(=C\C(=S)Nc1ccccc1)Nc1ccccc1`, the “hERG current change (%, negative = inhibition) at 10uM” value came to 22.4%.

In the case of `CC(=O)OC1CC[C@@]2(C)C(=CC(=O)C3C4CCC(OC(C)=O)[C@@]4(C)CCC32)C1` (some centres unmarked), the “hERG current change (%, negative = inhibition) at 10uM” value is reported as 8.15%.

As to `Cc1cc(Nc2ccccc2C(=O)O)nc2nc3ccccc3c(=O)n12`, the “hERG current change (%, negative = inhibition) at 10uM” value stood at 2.04%.

On to `CC/C(=N\NC(=S)NC(C)C)c1ccc(OC(F)F)cc1`, for which the “hERG current change (%, negative = inhibition) at 10uM” value was -41.6%.

For `O=C1C2C3C=CC(C3)C2C(=O)N1/N=C/c1cn(Cc2ccc(F)cc2)c2ccccc12` (centres unmarked), the “hERG current change (%, negative = inhibition) at 10uM” value is on record as 5.84%.

Turning to `CN(CC(=O)Nn1cnnc1)S(=O)(=O)c1ccc(Br)cc1`, the “hERG current change (%, negative = inhibition) at 10uM” value was -7.55%.

As to `CCOC(=O)c1ccc(NC(=O)Cn2cnc(S(=O)(=O)N3CCCC3)c2)cc1`, the “hERG current change (%, negative = inhibition) at 10uM” value is given as 15.1%.

For `Cc1c(NC(=S)N2CCN(c3cccc(Cl)c3)CC2)c(=O)n(-c2ccccc2)n1C`, the “hERG current change (%, negative = inhibition) at 10uM” value is on record as -8.99%.

`Cc1ccc2oc(C(=O)NC3CCS(=O)(=O)C3)cc(=O)c2c1` (centres unmarked): the “hERG current change (%, negative = inhibition) at 10uM” value was found to be 27.9%.

Take `COc1ccc(N2C(=O)CC(N(C)CCc3ccc(OC)c(OC)c3)C2=O)cc1` (centres unmarked): the “hERG current change (%, negative = inhibition) at 10uM” value turned out to be 4.86%.

For the compound `Cc1ccc(-n2ncc3c(NCc4ccccc4)ncnc32)cc1`, the “hERG current change (%, negative = inhibition) at 10uM” value came to 12.3%.

Consider `CCC(=O)c1cc(F)c(N2CCN(S(=O)(=O)c3ccc(C)cc3)CC2)cc1C`, for which the “hERG current change (%, negative = inhibition) at 10uM” value is listed as -15%.

As to `O=C(CSc1ccccn1)Nc1nc2ccccc2s1`, the “hERG current change (%, negative = inhibition) at 10uM” value is recorded as 11.1%.

On to `COc1ccc(OC)c(NC(=O)N[C@@H](Cc2ccccc2)C(=O)O)c1`, for which the “hERG current change (%, negative = inhibition) at 10uM” value was determined as 2.57%.

In the case of `Cn1cnnc1SCC(=O)Nc1ccc(Cl)c(S(=O)(=O)N2CCOCC2)c1`, the “hERG current change (%, negative = inhibition) at 10uM” value stood at 8.35%.

Consider `Cc1ccccc1-c1nc(SCc2cccnc2)c2c(=O)n(C)c(=O)n(C)c2n1`, for which the “hERG current change (%, negative = inhibition) at 10uM” value is reported as 10.5%.

Turning to `COc1cc(C(=O)OCC(=O)N2CC(C)OC(C)C2)cc(OC)c1OC` (centres unmarked), the “hERG current change (%, negative = inhibition) at 10uM” value is given as 33%.

Consider `Cc1ccc(CNc2ccccc2C(=O)O)s1`, for which the “hERG current change (%, negative = inhibition) at 10uM” value was found to be 12.7%.

As to `O=C(NNc1ccccn1)C(=O)NNS(=O)(=O)c1ccc(F)cc1`, the “hERG current change (%, negative = inhibition) at 10uM” value is 12.5%.

Regarding `O=C(COc1ccccc1)NC1CCS(=O)(=O)C1` (centres unmarked), the “hERG current change (%, negative = inhibition) at 10uM” value is given as 18.5%.

Consider `O=C1OC(c2ccccc2)c2ccccc21` (centres unmarked), for which the “hERG current change (%, negative = inhibition) at 10uM” value turned out to be 12.8%.

For `O=C(COC(=O)CCC(=O)c1cccs1)Nc1cc(S(=O)(=O)N2CCOCC2)ccc1Cl`, the “hERG current change (%, negative = inhibition) at 10uM” value is recorded as -53.5%.

`COc1cc(/C=C/C(=O)c2ccc(Cl)s2)cc(OC)c1O`: the “hERG current change (%, negative = inhibition) at 10uM” value is -74.4%.

With `Cc1ccc(N(CC(=O)N2CCOCC2)S(=O)(=O)c2ccccc2)cc1`, the “hERG current change (%, negative = inhibition) at 10uM” value is -2.35%.

`CC(C)CC(c1nnnn1CC1CCCO1)N1CCN(c2cccc(Cl)c2)CC1` (centres unmarked): the “hERG current change (%, negative = inhibition) at 10uM” value is listed as -3.77%.

For `CCOC(=O)C1=C(C)NC2=C(C(=O)c3ccccc32)C1c1ccc(O)cc1` (centres unmarked), the “hERG current change (%, negative = inhibition) at 10uM” value came out at 13.3%.

As for `CCCCC(=O)Nc1ccc(NC(=O)c2cnccn2)cn1`, the “hERG current change (%, negative = inhibition) at 10uM” value is recorded as 24.7%.

Regarding `CCCN(C(=O)COC(=O)CCOc1ccccc1)c1c(N)n(Cc2ccccc2)c(=O)[nH]c1=O`, the “hERG current change (%, negative = inhibition) at 10uM” value was -8.17%.

For `Cc1ccccc1CSc1nc(-c2ccccc2)cc(=O)[nH]1`, the “hERG current change (%, negative = inhibition) at 10uM” value turned out to be 9.32%.

Turning to `CCOC(=O)CN1C(=O)COc2ccc(C(C)(C)C)cc21`, the “hERG current change (%, negative = inhibition) at 10uM” value is reported as -18.6%.
